This note sets out measurements from patent publication US20250129083A1, “IMIDAZOTETRAZINE COMPOUNDS AND TREATMENT OF TMZ-RESISTANT CANCERS” (THE BOARD OF TRUSTEES OF THE UNIVERSITY OF ILLINOIS, priority 2022, published 2025).

The test relates to linearized pBR322 plasmid DNA. Particulars: purified linearized DNA, 15 hours at 37° C.

On to `C#CCn1nnc2c(Cl)ncn2c1=O` [CPZ, 8-chloro-3-(prop-2-yn-1-yl)imidazo[5,1-d][1,2,3,5]tetrazin-4(3H)-one], for which the “DNA alkylation (streaking on gel)” value was “clear evidence of both DNA cross-linking and alkylation”; the DNA interstrand cross-linking entry is “clear evidence of both DNA cross-linking and alkylation”.
